# Reference: PMC6919601, “Identification of Plasmodium dipeptidyl aminopeptidase allosteric inhibitors by high throughput screening” (PLoS ONE, 2019)
# About 230 (0.21%) of roughly 110,000 compounds showed an effect of 50% or more. Some of the results follow.
# Molecular target: DPAP1 (Plasmodium falciparum, UniProt Q8IIJ9)
# Experiment: primary screen, percent inhibition; read by cleavage of a fluorogenic dipeptide substrate; higher = more effect of the substance
# Set-up: species or system P. falciparum D10 trophozoite lysates; single well
# 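Note: 30 min substrate incubation versus DMSO and 10 µM JCP410 controls.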
# DPAP1, sequence (Q8IIJ9 whole entry, looked up): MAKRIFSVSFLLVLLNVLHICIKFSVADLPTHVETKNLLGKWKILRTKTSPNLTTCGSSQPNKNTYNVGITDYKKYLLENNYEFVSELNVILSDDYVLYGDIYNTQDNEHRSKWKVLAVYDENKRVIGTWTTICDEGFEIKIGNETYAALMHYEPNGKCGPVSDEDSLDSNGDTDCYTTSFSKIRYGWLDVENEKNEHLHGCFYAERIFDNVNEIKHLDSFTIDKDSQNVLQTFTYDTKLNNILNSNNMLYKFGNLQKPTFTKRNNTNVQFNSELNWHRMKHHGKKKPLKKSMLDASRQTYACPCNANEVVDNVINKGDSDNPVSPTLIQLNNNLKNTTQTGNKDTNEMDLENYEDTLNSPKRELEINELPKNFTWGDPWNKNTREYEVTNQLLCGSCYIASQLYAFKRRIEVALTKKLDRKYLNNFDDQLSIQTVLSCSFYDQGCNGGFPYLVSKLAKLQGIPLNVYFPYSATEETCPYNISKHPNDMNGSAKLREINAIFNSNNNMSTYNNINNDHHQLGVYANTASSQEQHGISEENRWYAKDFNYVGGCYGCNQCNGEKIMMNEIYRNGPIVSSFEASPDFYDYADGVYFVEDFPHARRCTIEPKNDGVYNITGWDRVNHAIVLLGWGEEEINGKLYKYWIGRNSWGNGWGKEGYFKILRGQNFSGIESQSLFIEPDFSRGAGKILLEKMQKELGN
row,SMILES,% Inhibition @ 10 uM [%]
1,CCCCn1c(CN(C)Cc2ccccc2)nc2c1c(=O)n(C)c(=O)n2C,-4.14
2,O=C(O)c1ccc(N2C(=O)c3ccc([N+](=O)[O-])cc3C2=O)cc1,0.266
3,CCn1ncc(/C=N/N=C2\CCC3C4CCc5cc(O)ccc5C4CCC23C)c1C (stereo not drawn),3.94
4,Cc1ccc(OCC(=O)N2CCc3ccccc32)cc1,2.13
5,Cn1c2c(c(=O)n(C)c1=O)C(c1ccc(Cl)cc1Cl)C1C(=O)c3ccccc3C1=N2 (stereo not drawn),5.59
6,O=C(CCCn1c(=O)c2sccc2n(Cc2cccc(F)c2)c1=O)NCc1ccc2c(c1)OCO2,2.98
7,Cc1ccc(-n2ncc3c(S)ncnc32)cc1,-6.6
8,Cc1ccc(C(C)C)c(Oc2nc3ccccn3c(=O)c2/C=C(\C#N)C(=O)NCc2ccccc2)c1,-1.43
9,CC1CCN(S(=O)(=O)c2ccc3c(ccn3CC(=O)NCc3ccco3)c2)CC1,-0.356
10,COc1ccccc1OCC(=O)Nc1cc(Cl)cc(Cl)c1,0.907
11,CCN1CCN(C(CNC(=O)C(=O)NCc2ccco2)c2cccnc2)CC1 (stereo not drawn),-7.29
12,Cc1cccc(C)c1Oc1ccc(NC(=O)CCC(=O)O)cc1,7.42
13,CCC1CCCCN1CCNC(=O)C1CCC(CNS(=O)(=O)c2cccc3nsnc23)CC1 (stereo not drawn),1.26
14,Cc1c(C(=O)N2CCN(Cc3ccccc3)CC2)sc2ncnc(N3CCC(C)CC3)c12,-2.17
15,COc1ccc(CCC(=O)Nc2ccccn2)cc1,0.24
16,Cc1ccc(OCC(=O)Nc2sc(C)c(C)c2C(N)=O)cc1,1.84
17,CC(C)N(Cc1nc(-c2ccccc2)no1)C(=O)c1ccc(C(C)(C)C)cc1,4.38
18,CC1=C(C(=O)Nc2ccc(Br)cc2)C(c2ccc(Br)cc2)NC(S)=N1 (stereo not drawn),-0.603
19,Cc1nn(CC(=O)NCCCN2CC(C)CC(C)C2)c(=O)c2cc3cc(F)ccc3n12 (stereo not drawn),3.09
20,O=c1nc2n(c(O)c1C(c1ccc(Br)cc1)c1c(O)nc3n(c1=O)CCCS3)CCCS2 (stereo not drawn),9.94
21,N#Cc1c(N)nc2c(c1-c1ccc(Cl)cc1Cl)CCCC2,-4.94
22,CCOc1cc(CNCc2c(C(=O)O)c(C)n(Cc3ccc(F)cc3)c2C)cc(OCC)c1OCC,-5.49
23,CN1CC(=O)N=C1NC(=O)c1cnn(-c2ccccc2)c1-n1cccc1,-4.27
24,Cc1cc(C)c(-c2c(O)c3ccccc3n(C)c2=O)c(C)c1,-7.55
25,COc1ccccc1C(=O)N1CCCc2ccccc21,4.83

row,SMILES,% Inhibition @ 10 uM [%]
1,O=C(Nc1cccc2ccccc12)c1onc2c1CCCC2,0.777
2,O=S(=O)(NCc1ccc(CN2CCCCCC2)o1)c1ccc(-c2cc(C(F)(F)F)no2)s1,0.533
3,CSc1ccc(CN2CCC(O)(c3ccc(Br)cc3)CC2)cc1,4.75
4,CCOc1ccc2nc(NCc3ccc(F)cc3)sc2c1,1.76
5,Nc1c(C(=O)c2ccccc2)sc2nc3c(cc12)CCCC3,1.41
6,CNCCc1ccccc1Sc1ccccc1,1.4
7,Cc1c(C(=O)Nc2sc3c(c2C(=O)NC2CCS(=O)(=O)C2)CCCC3)oc2ccccc12 (stereo not drawn),-4.52
8,Cc1ccccc1-n1c(SCC(=O)NCc2ccccc2)nc2nnc(C)c-2c1N,7.3
9,COc1ccc(CC(C)N(C)C2CCN(C)CC2)cc1OC (stereo not drawn),-1.5
10,COc1ccc(CC(=O)Nc2cc(C)ccn2)cc1OC,-6.81
11,O=S(=O)(Nc1nc2ccccc2s1)c1ccc2ccccc2c1,5.24
12,COc1ccc(CCNC(=O)c2c(-c3ccccc3Cl)noc2C)cc1,-7.22
13,CCc1ccc(-c2nc(CSCC(=O)NCCCN3CCCC3=O)c(C)o2)cc1,0.689
14,CCC(=O)N1CCN(c2ccc(NCc3ccccc3)cc2)CC1,-16.4
15,Cn1nc(C(F)(F)F)cc1C(=O)Nc1ccc(S(=O)(=O)N2CCCC2)cc1,-0.171
16,Cc1ccc(-n2nc3c(=O)n(CCCC(=O)N4CCOCC4)nc(C)c3c2C)cc1,-2.87
17,C=CCn1c(SCC(=O)O)nc2sc3c(c2c1=O)CCCC3,-1.93
18,Cc1cc(C)n(C(=O)CCCN2C(=O)c3cccc4cccc(c34)C2=O)n1,-1.4
19,Cc1ccccc1-c1nc(CS(=O)(=O)CC(=O)NCCCN2CCOCC2)c(C)o1,-3.7
20,CCNC(=O)/C(=C\c1ccccc1)NC(=O)c1ccccc1Br,-2.64
21,CCOP(=O)(CN1CCCCC1)OCC,-3.85
22,Cc1ccc2ncc(NC(=O)N(C)Cc3ccccc3)c(O)c2c1,-1.29
23,Clc1ccccc1CN1CCN(c2ncccn2)CC1,3.9
24,O=C(NCCCN1CCOCC1)c1[nH]c2ccccc2c1Sc1ccc(Cl)cc1,-8.23
25,CC(C)(C)c1ccc(C(=O)NC(Cc2c(F)cccc2F)C(=O)NCC#N)cc1 (stereo not drawn),-1.41

row,SMILES,% Inhibition @ 10 uM [%]
1,COc1ccccc1N1CCN(C(=O)C23CC4CC(CC(C4)C2)C3)CC1,-0.591
2,O=C(Cc1ccc(F)cc1)Nc1cccc2cccnc12,4.31
3,O=C(Nc1ccncc1)c1ccc(NS(=O)(=O)c2cccc(F)c2)cc1,-5.26
4,CC(=O)c1c(C)c2c(n1CCN(C)C)CCCC2,3.54
5,CCCNC(=O)C(N)Cc1c[nH]c2ccccc12 (stereo not drawn),-3.21
6,COc1ccc(C(CC(=O)O)NC(=O)C2CCCCC2)cc1 (stereo not drawn),-1.47
7,CCc1ccc(CNC(=O)C2CCCN(c3nc4ccccc4o3)C2)cc1 (stereo not drawn),-3.12
8,CCOC(=O)c1sc2ncn3c(-c4ccco4)nnc3c2c1C,-1.17
9,CC(C)C[C@H](NC(=O)OCc1ccc(OC(F)(F)F)cc1)C(=O)NCC#N,3.19
10,COCCO/C(O)=C1\C(C)=NC2=C(C(=O)CC(c3ccc(Cl)cc3)C2)C1c1ccccc1F (stereo not drawn),1.67
11,COc1ccc(C(=O)NCC2(c3ccccc3)CCCC2)cc1,-1.02
12,COCCCn1c(=O)c2sccc2n2c(CCCC(=O)NCCNC(C)=O)nnc12,-2.15
13,N#CCNC(=O)[C@H](Cc1cc(I)c(O)c(I)c1)NC(=O)N1CCOCC1,-6.46
14,O=C(NCC12CC3CC(CC(C3)C1)C2)c1cc(-c2ccc(F)cc2)no1,-2.07
15,Cc1cccc2c3nn4cn[nH]c4nc-3nc12,-6.44
16,Cc1ccsc1C1CC(=O)Oc2c1c(=O)oc1ccccc21 (stereo not drawn),-0.0108
17,O=C(COc1ccc(F)cc1)Nc1nn2c(-c3ccccc3)nnc2s1,-2.48
18,COc1ccc(OCC(O)CN2CCN(c3ccccc3)CC2)cc1 (stereo not drawn),-6.36
19,Cc1nnc2c(Oc3ccc(-c4ccccc4)cc3)nc3ccccc3n12,-7.23
20,COc1ccc(OC)c(C2CC(=O)Nc3c2c(C)nn3-c2nc3ccccc3s2)c1 (stereo not drawn),-1.11
21,CC(=O)c1c(O)cc(C)o/c1=N\Cc1ccco1,0.674
22,COCCNC(=O)c1nn2c(C(F)(F)F)cc(-c3ccc(Br)cc3)nc2c1Cl,-5
23,O=c1cc(CSCc2ccc(Cl)cc2)nc2scc(-c3ccccc3)n12,-2.19
24,Cc1ccc(NC(=O)c2cccc(OC(F)F)c2)c(C)c1,-1.84
25,CCOC(=O)CCNC(=O)c1ccccc1,2.62

row,SMILES,% Inhibition @ 10 uM [%]
1,COc1ccc(Br)cc1CNCc1ccc(OC)c(OC)c1,-5.26
2,Cc1nc(N2CCOCC2)c2oc3ccccc3c2n1,-0.28
3,Cc1cccc(OCC(=O)Nc2ccc(S(=O)(=O)N(C)Cc3ccccc3)cc2)c1,2.05
4,COc1ccc(C(=O)NCc2nnc(SCC(=O)c3ccc(Cl)cc3)o2)cc1,-1.58
5,COc1ccc(C(=O)Nc2ccc(OC(C)C)cc2)cc1,-1.76
6,O=C(CNC(=S)N(Cc1ccccc1F)C1CCCCC1)N1CCCC1,4.47
7,Cc1ccc(OCC(=O)Nc2ccc(CN3CCOCC3)cc2)c(C)c1,0.528
8,COc1ccc(/C=C2\CS/C(=C\c3ccc(OC)c(Cn4cccn4)c3)C2=O)cc1Cn1cccn1,2.35
9,COc1cccc(NC(=O)c2cccc(C)c2)c1,2.13
10,CCc1ccc(NC2=NC(=O)/C(=C\c3ccc(OCC#N)cc3)S2)cc1,-0.473
11,COc1ccc(C2=N/C(=C/c3ccccc3F)C(=O)O2)cc1Br,4.7
12,COc1ccc(OCC(=O)Nc2ccc(S(=O)(=O)N3CCC(C)CC3)cc2)cc1,-3.78
13,Cc1ccc(OCCn2c(=O)oc3ccc(C)cc32)cc1,-3.16
14,COc1cccc(CN2CCCN(C)CC2)c1,-0.192
15,CCOc1ccc(C(=O)NC2C3CC4CC(C3)CC2C4)cc1 (stereo not drawn),-9.2
16,O=C(Nc1ccc(Cl)cc1C(=O)Nc1ccncc1)c1ccco1,1.27
17,CC(=O)Nc1ccc(S(=O)(=O)Nc2cccc(C(=O)Nc3cccc(Cl)c3)c2)cc1,-15.9
18,CCOc1ccc(C(=O)N2CCN(c3ccccc3OC)CC2)cc1,-2.22
19,CCC[C@@H](/C=C/S(=O)(=O)c1ccccc1)NC(=O)[C@H](Cc1c(F)cccc1F)NC(=O)c1ccc(-c2ccccc2Cl)cc1,2.87
20,COc1ccc2[nH]c3c(=O)n(Cc4ccc(C(=O)NCc5cccnc5)cc4)c(=S)[nH]c3c2c1,2.74
21,CCOc1cc(CO)cc(Br)c1OCc1ccc(C(=O)O)cc1,1.7
22,Cc1nn(CC(=O)NCc2cccnc2)c(C)c1Cl,0.883
23,CCOc1cccc(N2C(=O)CC(N3CCCCC3)C2=O)c1 (stereo not drawn),0.35
24,CCOC(=O)c1[nH]c(O)nc1CSc1nc(C)cc(C)n1,12.3
